Reference: the supplement of paper PMC4967469
By IC50 is meant the dose at which the fit gives 50% viability; a limit (>, <) means that the fit lies beyond the doses tested. For AUC the same curve is integrated over the 256-fold range of doses and scaled to a fraction; the more sensitive the line, the further below 1. For part of these data: The top dose, if marked as inferred, was derived from the fitted curves, not read from the paper. For part of these data: Where an entry number is given, a second screen of the drug exists; the two often differ.

Legend:
Test in all cases: Viability of human cancer cell lines after 72 h of drug (GDSC screen)
YM155 = compound: COCC[n+]1c2c(n(Cc3cnccn3)c1C)C(=O)c1ccccc1C2=O [YM155]; conditions: top dose 5.12 µM
Method: (§1)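 Human cancer cell lines in 384-well plates, medium with 10% serum, drug for 72 h over a 256-fold dose range (nine 2-fold or five 4-fold steps up to the top dose). Adherent lines were fixed and stained with the nucleic acid dye Syto60, suspension lines read with resazurin; signal relative to control wells, capped at 0 and 100%. One two-parameter sigmoid per drug and line, fitted in a mixed model over all curves with the slope shared within a line.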

OSI-906 = compound: C[C@]1(O)C[C@@H](c2nc(-c3ccc4ccc(-c5ccccc5)nc4c3)c3c(N)nccn32)C1 [OSI-906]; conditions: top dose 2.56 µM; top dose inferred
Method: as §1

AMG-706 = compound: CC1(C)CNc2cc(NC(=O)c3cccnc3NCc3ccncc3)ccc21 [AMG-706]; conditions: top dose 2 µM; top dose inferred
Method: as §1

Belinostat = compound: O=C(/C=C/c1cccc(S(=O)(=O)Nc2ccccc2)c1)NO [Belinostat]; conditions: top dose 20 µM; top dose inferred
Method: as §1

SB-715992 = compound: Cc1ccc(C(=O)N(CCCN)[C@@H](c2nc3cc(Cl)ccc3c(=O)n2Cc2ccccc2)C(C)C)cc1 [SB-715992]; conditions: top dose 0.128 µM; top dose inferred
Method: as §1

JQ1 = compound: Cc1sc2c(c1C)C(c1ccc(Cl)cc1)=N[C@@H](CC(=O)OC(C)(C)C)c1nnc(C)n1-2 [JQ1]
Method: as §1

NSC-207895 = compound: CN1CCN(c2ccc([N+](=O)[O-])c3no[n+]([O-])c23)CC1 [NSC-207895]; conditions: top dose 20 µM; top dose inferred
Method: as §1

JNK Inhibitor VIII = compound: CCOc1nc(NC(=O)Cc2cc(OC)ccc2OC)cc(N)c1C#N [JNK Inhibitor VIII]; conditions: top dose 10 µM; top dose inferred
Method: as §1

CGP-60474 = compound: OCCCNc1cc(-c2ccnc(Nc3cccc(Cl)c3)n2)ccn1 [CGP-60474]; conditions: top dose 0.256 µM; top dose inferred
Method: as §1

Docetaxel = compound: CC(=O)O[C@@]12CO[C@@H]1C[C@H](O)[C@@]1(C)C(=O)[C@H](O)C3=C(C)[C@@H](OC(=O)[C@H](O)[C@@H](NC(=O)OC(C)(C)C)c4ccccc4)C[C@@](O)([C@@H](OC(=O)c4ccccc4)[C@H]21)C3(C)C [Docetaxel]; conditions: top dose 0.0125 µM
Method: as §1

FTI-277 = compound: COC(=O)[C@H](CCSC)NC(=O)c1ccc(NC[C@@H](N)CS)cc1-c1ccccc1 [FTI-277]; conditions: top dose 1.024 µM; top dose inferred
Method: as §1

Cyclopamine = compound: CC1=C2C[C@H]3[C@@H](CC=C4C[C@@H](O)CC[C@@]43C)[C@@H]2CC[C@]12O[C@@H]1C[C@H](C)CN[C@H]1[C@H]2C [Cyclopamine]; conditions: top dose 16 µM; top dose inferred
Method: as §1

JNJ-26854165 = compound: c1ccc2c(CCNc3ccc(Nc4ccncc4)cc3)c[nH]c2c1 [JNJ-26854165]; conditions: top dose 10 µM
Method: as §1

[1] = top dose 1 µM, screen: GDSC drug entry 1218, top dose inferred
[2] = top dose 2.56 µM, screen: GDSC drug entry 163

Cell Line	AUC (YM155)	IC50 (YM155)	AUC (OSI-906)	IC50 (OSI-906)	AUC (AMG-706)	IC50 (AMG-706)	AUC (Belinostat)	IC50 (Belinostat)	AUC (SB-715992)	IC50 (SB-715992)	AUC (JQ1; [1])	IC50 (JQ1; [1])	AUC (JQ1; [2])	IC50 (JQ1; [2])	AUC (NSC-207895)	IC50 (NSC-207895)	AUC (JNK Inhibitor VIII)	IC50 (JNK Inhibitor VIII)	AUC (CGP-60474)	IC50 (CGP-60474)	AUC (Docetaxel)	IC50 (Docetaxel)	AUC (FTI-277)	IC50 (FTI-277)	AUC (Cyclopamine)	IC50 (Cyclopamine)	AUC (JNJ-26854165)	IC50 (JNJ-26854165)
SK-PN-DW (Ewing sarcoma, adherent)	0.029	< 20 nM	0.791	1190 nM	0.965	> 2000 nM	0.365	522 nM	0.76	46.8 nM	0.977	> 1000 nM	0.858	2230 nM	0.835	13900 nM	0.98	> 10000 nM	0.781	111 nM	0.796	6.12 nM	0.957	> 1020 nM	0.958	> 16000 nM		
GA-10 (Burkitt lymphoma, suspension)					0.991	> 2000 nM					0.765	312 nM	0.47	134 nM			0.991	> 10000 nM	0.532	19.3 nM	0.885	10 nM	0.991	> 1020 nM	0.89	13400 nM	0.909	> 10000 nM
KP-N-YN (neuroblastoma, adherent)	0.038	< 20 nM	0.928	> 2560 nM	0.944	> 2000 nM	0.397	632 nM	0.965	> 128 nM					0.77	8360 nM	0.949	> 10000 nM	0.896	> 256 nM	0.926	> 12.5 nM	0.982	> 1020 nM	0.986	> 16000 nM		
no-10 (glioma, adherent)	0.037	< 20 nM	0.97	> 2560 nM			0.575	2100 nM	0.93	> 128 nM	0.959	> 1000 nM	0.544	217 nM	0.972	> 20000 nM			0.451	11.4 nM	0.823	9.7 nM	0.954	> 1020 nM	0.813	11100 nM	0.832	8460 nM
DJM-1 (skin, adherent)			0.985	> 2560 nM	0.988	> 2000 nM	0.988	> 20000 nM	0.889	> 128 nM			0.818	1430 nM	0.957	> 20000 nM	0.989	> 10000 nM	0.782	106 nM	0.618	1.65 nM	0.984	> 1020 nM	0.932	> 16000 nM	0.926	> 10000 nM
Becker (glioma, adherent)	0.861	> 5120 nM	0.982	> 2560 nM	0.982	> 2000 nM			0.627	18.7 nM	0.975	> 1000 nM	0.865	> 2560 nM	0.971	> 20000 nM	0.984	> 10000 nM	0.653	44.9 nM	0.646	2.09 nM	0.983	> 1020 nM	0.962	> 16000 nM	0.815	6370 nM
SK-N-DZ (neuroblastoma, adherent)	0.498	315 nM	0.569	247 nM			0.588	2170 nM	0.981	> 128 nM	0.969	> 1000 nM	0.901	> 2560 nM	0.979	> 20000 nM			0.832	160 nM	0.876	12.1 nM	0.985	> 1020 nM	0.987	> 16000 nM	0.773	3830 nM
NCI-H1963 (small cell lung carcinoma, suspension)	0.342	125 nM	0.976	> 2560 nM			0.94	> 20000 nM					0.945	> 2560 nM	0.917	> 20000 nM			0.739	68.9 nM	0.854	7.96 nM	0.988	> 1020 nM	0.988	> 16000 nM	0.991	> 10000 nM
NCI-H2081 (small cell lung carcinoma, suspension)	0.058	< 20 nM	0.94	> 2560 nM	0.987	> 2000 nM			0.862	120 nM	0.975	> 1000 nM	0.892	> 2560 nM	0.915	> 20000 nM	0.987	> 10000 nM	0.931	> 256 nM	0.966	> 12.5 nM	0.987	> 1020 nM	0.989	> 16000 nM	0.981	> 10000 nM
RL95-2 (endometrium, adherent)	0.031	< 20 nM					0.325	408 nM	0.957	> 128 nM	0.986	> 1000 nM	0.808	1310 nM	0.849	14800 nM			0.649	41.2 nM	0.539	0.995 nM	0.986	> 1020 nM	0.973	> 16000 nM		
GAK (melanoma, adherent)	0.231	55.5 nM	0.989	> 2560 nM			0.544	1640 nM	0.977	> 128 nM	0.989	> 1000 nM	0.894	> 2560 nM	0.963	> 20000 nM			0.853	185 nM	0.828	7.19 nM	0.975	> 1020 nM	0.989	> 16000 nM	0.903	> 10000 nM
DOHH-2 (B-cell lymphoma, suspension)			0.985	> 2560 nM	0.981	> 2000 nM							0.613	325 nM			0.977	> 10000 nM	0.593	28.6 nM	0.793	5.55 nM	0.979	> 1020 nM	0.786	6710 nM		
IM-9 (myeloma, suspension)			0.987	> 2560 nM	0.992	> 2000 nM					0.927	> 1000 nM	0.941	> 2560 nM			0.99	> 10000 nM	0.984	> 256 nM	0.992	> 12.5 nM	0.985	> 1020 nM	0.989	> 16000 nM	0.974	> 10000 nM
SK-MEL-1 (melanoma, suspension)	0.31	102 nM	0.993	> 2560 nM	0.992	> 2000 nM			0.991	> 128 nM	0.979	> 1000 nM	0.993	> 2560 nM	0.978	> 20000 nM	0.991	> 10000 nM	0.972	> 256 nM	0.993	> 12.5 nM	0.993	> 1020 nM	0.983	> 16000 nM	0.897	9470 nM
KMS-12-BM (myeloma, suspension)	0.015	< 20 nM	0.872	1740 nM			0.177	170 nM	0.711	27.8 nM					0.901	17900 nM			0.792	94.3 nM	0.729	3.03 nM	0.99	> 1020 nM	0.99	> 16000 nM	0.875	7000 nM
NCI-H69 (small cell lung carcinoma, suspension)			0.983	> 2560 nM	0.985	> 2000 nM			0.635	19.8 nM	0.888	> 1000 nM	0.728	777 nM	0.959	> 20000 nM	0.983	> 10000 nM	0.909	> 256 nM	0.911	> 12.5 nM	0.976	> 1020 nM	0.94	> 16000 nM	0.977	> 10000 nM
NB6 (neuroblastoma, adherent)	0.072	< 20 nM	0.913	> 2560 nM	0.98	> 2000 nM			0.794	74.6 nM	0.98	> 1000 nM	0.8	1580 nM	0.848	> 20000 nM	0.984	> 10000 nM	0.897	> 256 nM	0.931	> 12.5 nM	0.96	> 1020 nM	0.983	> 16000 nM	0.958	> 10000 nM
U-87-MG (glioma, adherent)			0.985	> 2560 nM	0.964	> 2000 nM	0.709	5440 nM	0.981	> 128 nM	0.876	> 1000 nM	0.904	> 2560 nM	0.984	> 20000 nM	0.968	> 10000 nM	0.933	> 256 nM	0.782	6.21 nM	0.978	> 1020 nM	0.984	> 16000 nM	0.841	8790 nM
MMAC-SF (melanoma, adherent)			0.901	> 2560 nM	0.985	> 2000 nM	0.658	3510 nM	0.956	> 128 nM	0.985	> 1000 nM	0.831	1720 nM	0.864	18900 nM	0.947	> 10000 nM	0.738	79.5 nM	0.836	8.83 nM	0.985	> 1020 nM	0.987	> 16000 nM		
EB-3 (Burkitt lymphoma, suspension)			0.983	> 2560 nM	0.978	> 2000 nM	0.467	998 nM	0.894	> 128 nM	0.84	857 nM	0.863	> 2560 nM	0.841	17300 nM	0.983	> 10000 nM	0.717	74 nM	0.984	> 12.5 nM	0.964	> 1020 nM	0.903	> 16000 nM	0.978	> 10000 nM
NCI-H1581 (large cell lung carcinoma, semi-adherent)	0.023	< 20 nM	0.989	> 2560 nM			0.304	372 nM	0.861	94.7 nM	0.98	> 1000 nM	0.972	> 2560 nM	0.956	> 20000 nM			0.862	190 nM	0.716	3.02 nM	0.99	> 1020 nM	0.984	> 16000 nM	0.898	> 10000 nM
